Out of some 420,000 compounds screened, about 64,000 (15%) were called active. The shares of active, inactive and inconclusive entries below differ from those in the screen. The call rests on the fitted dose curve; in most records, active means well fitted inhibition curve with a large enough effect; inconclusive means small, poorly fitted or top-dose-only effect; inactive means flat fitted curve, though single readings scatter. Potencies of inconclusive entries are left out as doubtful fits. The source holds several records for some structures; these can differ, active in one and inactive in another.
assay: qHTS for Inhibitors of human tyrosyl-DNA phosphodiesterase 1 (TDP1): qHTS in cells in absence of CPT; conditions: DT40 Tdp1-/- hTDP1 cells, no CPT, ATP luminescence, 48 h; activity change, negative = growth inhibition: at 46.2 µM (top of the series) unless noted; further: nearly all actives have a fitted effect of over 55% in size
Method in brief: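 Growth of hTDP1-complemented DT40 Tdp1-knockout cells is measured by ATP luminescence after at least 48 hr compound exposure at 37 °C, with DMSO substituting for the 20 nM CPT used in the parallel screen.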
On the % scale 0 is the no-effect control and ±100 the full control effect; potency means the concentration at half of the fitted maximal effect; tags describe the fitted curve by direction and shape.

Structure (SMILES)	Potency	activity change, negative = growth inhibition
COc1ccc(-c2c(C3=CCCCC3)oc3ccc(-c4ccc5c(c4)OCO5)cc23)cn1	active: 14.6 µM	
COc1ccc(/C=C2\SC(=Nc3ccccc3Cl)NC2=O)c(OC)c1	active: 14.6 µM	
CS(=O)(=O)Nc1cccc(-c2nc(-n3ccnc3)c3ccccc3n2)c1	inconclusive [inhibitor, single point]	
COc1ccc(-c2csc(-c3c(N)c(C(=O)c4ccccc4)n4ccccc34)n2)cc1	inconclusive [inhibitor, single point]	
NNC(=O)c1ccc(COc2ccccc2)cc1	inconclusive [inhibitor, single point]	
Cc1ccc(N(C(=O)Cn2nnc(-c3ccc(C)o3)n2)C(C(=O)NC2CCCC2)c2ccncc2)cc1 (stereo not drawn)	inconclusive [inhibitor, single point]	
Cc1cccc(N2CCN(C(=O)c3ccc(CNc4c(N5CCC(C)CC5)c(=O)c4=O)cc3)CC2C)c1 (stereo not drawn)	inconclusive [inhibitor, partial curve, poor fit]	
Cc1cc(C(=O)COC(=O)c2n[nH]c(=O)c3ccccc23)c(C)n1C(C)C	inconclusive [inhibitor, partial curve]	
Cc1ccc(-n2nc3c(N4CCC(C(=O)NCCC(C)C)CC4)nnc(C)c3c2C)cc1	inconclusive [inhibitor, single point]	
Cc1onc(-c2c(F)cccc2Cl)c1C(=O)N(Cc1ccccc1)C(C)C	active: 9.2 µM	
O=c1cc(-c2cccc(O)c2)oc2c(O)c(O)ccc12	inconclusive [inhibitor, single point]	
Cc1ccc(C(=O)C2CCN(C(=S)NCCCOC(C)C)CC2)cc1	inconclusive [inhibitor, single point]	
O=C(CN1CCN(c2ccc(Cl)cc2)CC1)Nc1ccc(F)c(F)c1	inconclusive [inhibitor, single point]	
O=S(=O)(O)c1cc(Cl)cc(N=Nc2ccc(O)cc2O)c1O	inconclusive [inhibitor, partial curve, poor fit]	
COc1ccc(-c2nc(S(=O)(=O)c3ccccc3)c(NCCCN3CCOCC3)o2)cc1	inconclusive [inhibitor, single point]	
COc1cccc(C(=O)c2c[nH]c(C(=O)NCc3ccco3)c2)c1	inconclusive [inhibitor, partial curve]	
O=C(c1ccc2c(c1)OCCO2)C1CCN(C(=O)Nc2ccccc2F)CC1	inconclusive [inhibitor, single point]	
Cc1cccc(C)c1C(O)c1ncc(-c2ccc(F)cc2)[nH]1 (stereo not drawn)		inconclusive: -30.6% [inhibitor]
O=C(COc1ccccc1)Nc1ccc2nc(SCC(=O)N3CCCC3)sc2c1	active: 23.1 µM	
CCCNS(=O)(=O)c1cccc(C(=O)OCc2cc(=O)oc3cc(OC)ccc23)c1	active: 1.03 µM	
N#Cc1ccc(CN2CCN(C(=O)c3ccccc3)CC2)c(Cl)c1	inactive	
Nc1ccn([C@@H]2O[C@H](CNCc3cnc(N4CCOCC4)nc3)[C@@H](O)[C@H]2O)c(=O)n1	inactive	
COc1ccc(C2CC(=O)Oc3c2c(=O)n(C)c2ccccc32)c(OC)c1OC (stereo not drawn)	inactive	

Structure (SMILES)	Potency	activity change, negative = growth inhibition
CCOC(=O)c1c(NC(=O)CSc2nnc3c(n2)[nH]c2ccccc23)sc2c1CCN(C)C2	inconclusive [inhibitor, single point]	
Cc1ccccc1CC1(CO)CCCN(C(=O)c2ccccc2N(C)C)C1 (stereo not drawn)	inconclusive [inhibitor, single point]	
O=C(NNC(=S)Nc1ccc(F)cc1)c1ccccc1OC(F)F	inconclusive [inhibitor, single point]	
CCCCCN(C(=O)CCC(=O)OCCOc1ccc(OC)cc1)c1c(N)n(CCCC)c(=O)[nH]c1=O	inconclusive [inhibitor, single point]	
CCOC(=O)c1cc(C)sc1NC(=O)C(c1ccccc1)c1ccccc1	inconclusive [inhibitor, single point]	
CCc1ccc(NC(=O)CSc2nnc(-c3n[nH]c4ccccc34)n2-c2ccccc2)cc1		inconclusive: -34.6% [inhibitor]
CCCCOC(=O)c1ccc(NC(=O)c2ccccc2OC)cc1	inconclusive [inhibitor, partial curve, poor fit]	
Cn1c(CCN2CCCCCC2)nc2cc(NC(=O)Nc3ccccc3)ccc21	active: 23.1 µM	
Fc1ccc(N2CCN(c3ncnc4c3nc3n4CCCC3)CC2)cc1	inconclusive [inhibitor, single point]	
CCOC(=O)c1c(-c2ccccc2)oc2cc(Br)c(O)c(C=O)c12	inconclusive [inhibitor, single point]	
COc1ccc(-n2c(=S)[nH]c3ccccc32)cc1	inactive	
Cc1c(C(=O)N(C)C2CCCCC2)sc2ncnc(N3CCN(c4ccccc4F)CC3)c12	active: 18.4 µM	
Nc1nc2ccc(Cl)cc2cc1C(=O)NCCc1c[nH]c2ccccc12	inconclusive [inhibitor, partial curve, poor fit]	
O=S(=O)(c1ccc(Br)s1)N1CCN(c2ncccn2)CC1		inconclusive: -30.3% [inhibitor]
ON=C1CCN(c2ncc(C(F)(F)F)cc2Cl)CC1	inconclusive [inhibitor, single point]	
COc1ccc(OC)c2sc(N(CCCN(C)C)C(=O)c3ccco3)nc12	inconclusive [inhibitor, single point]	
Cc1ccccc1NC(=O)Nc1ccccc1C(N)=O		inconclusive: -31.7% [inhibitor]
COc1ccc([N+](=O)[O-])cc1NC(=O)c1ccc(N2C(=O)CCC2=O)cc1	inactive	
O=C(c1cc(-c2cccs2)nc2ccccc12)N1CCN(S(=O)(=O)c2cccc(F)c2)CC1	inconclusive [inhibitor, single point]	
CCOC(=O)N1CCN(S(=O)(=O)c2ccc(F)c(C(=O)Nc3cc(C)cc(C)c3)c2)CC1	inactive	
C/C(=N\NC(=O)c1ccc(-c2ccccc2)cc1)c1ccco1	inconclusive [inhibitor, single point]	
CN(CC(=O)Nc1cc(S(=O)(=O)N2CCCC2)ccc1Cl)Cc1nc2ccccc2c(=O)[nH]1	active: 20.6 µM	
Fc1ccc2[nH]c3c(c2c1)CN(C(=S)NCc1ccccc1)CC3	inconclusive [inhibitor, partial curve, poor fit]	

Structure (SMILES)	Potency	activity change, negative = growth inhibition
C/C(=N\NC(=O)COc1ccc(C)cc1C(C)C)c1cc2ccccc2o1	inconclusive [inhibitor, single point]	
COc1ccc(NC(=O)CN(C)C(=O)C(Sc2ccccc2)c2ccccc2)cc1 (stereo not drawn)	inconclusive [inhibitor, single point]	
COC(=O)c1c(N(S(C)(=O)=O)S(C)(=O)=O)sc2c1CCN(c1ncc(C(F)(F)F)cc1Cl)C2	inconclusive [inhibitor, single point]	
Cc1nc(N)ncc1CCC1OCCO1	inactive	
Cc1c(/C=N/N=C2\CCC3C4CCc5cc(O)ccc5C4CCC23C)cnn1C (stereo not drawn)	inconclusive [inhibitor, single point]	
Cc1cccc2cc(CN(Cc3ccccc3)C(=O)c3cccc(F)c3)c(Cl)nc12	inconclusive [inhibitor, single point]	
CCCCCCSc1ccc(-c2nc3ccc(C)cn3c2NCc2ccccc2)cc1	active: 16.4 µM	
COc1ccccc1C1CCN(C(=O)c2ccc(C(C)(C)C)cc2)CC1	active: 16.4 µM	
O=C(O)c1ccc2c(=O)n3c(nc2c1)/C(=C/c1cccc(Cl)c1Cl)CC3		inconclusive: -32.6% [inhibitor]
S=C(NCc1ccco1)Nc1ccc(Br)cc1Cl	inactive	
COc1ccc(OC)c(S(=O)(=O)N/N=C\c2c[nH]c3ccccc23)c1	active: 9.2 µM	
Brc1cccc(CNCCCN2CCOCC2)c1	inconclusive [inhibitor, single point]	
CC(C)Cc1nnc(NC(=O)CSc2nc(-c3ccccc3)cc(=O)[nH]2)s1	inconclusive [inhibitor, single point]	
CCOc1ccc(NC(=O)c2nc(S(=O)(=O)Cc3ccc(C)cc3)ncc2Cl)cc1	active: 0.631 µM	
Cc1ccc(-c2noc(COc3ccccc3C)n2)cc1	inconclusive [inhibitor, partial curve, poor fit]	
Cc1cccc(C)c1NC(=O)C(c1ccccc1)N1CCC1=O (stereo not drawn)	inconclusive [inhibitor, partial curve, poor fit]	
COc1ccc(C2c3c(-c4ccc(F)cc4)n[nH]c3C(=O)N2c2ccccc2)cc1OC (stereo not drawn)	inconclusive [inhibitor, single point]	
COc1cc2[nH]c(=S)n(Cc3cccs3)c(=O)c2cc1OC	inconclusive [inhibitor, partial curve]	
O=C(NCCN1CCOCC1)C1CCC(=O)N1Cc1ccccc1Cl (stereo not drawn)	inactive	
COc1ccc(Cl)cc1NC(=O)C(C)OC(=O)C1=NNC(=O)CC1 (stereo not drawn)	inactive	
CSc1ncc(Cl)c(C(=O)NCc2cccnc2)n1	inactive	
CCOC(=O)c1ccc(NC(=O)c2ccc(-c3cccc(Cl)c3C)o2)cc1	inconclusive [inhibitor, single point]	

Source: PubChem BioAssay AID686978 (National Center for Advancing Translational Sciences (NCATS), 2013)
